Hit rate of the full screen: of about 420,000 compounds, about 64,000 (15%) were called active. The shares of active, inactive and inconclusive entries below differ from those in the screen. Calls come from the whole dose curve; as a rule, active = well fitted inhibition curve with a large enough effect; inconclusive = small, poorly fitted or top-dose-only effect; inactive = flat fitted curve, though single readings scatter. No potency is given beside an inconclusive call; the fits are too rough.
Assay: qHTS for Inhibitors of human tyrosyl-DNA phosphodiesterase 1 (TDP1): qHTS in cells in absence of CPT; note: nearly all actives have a fitted effect of over 55% in size
Conditions: DT40 Tdp1-/- hTDP1 cells, no CPT, ATP luminescence, 48 h; activity change, negative = growth inhibition: at 46.2 µM (top of the series) unless noted
Summary of the method: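 No-CPT arm: Tdp1-/-;hTDP1 DT40 cells (400/well) plus compounds, incubated ≥48 hr at 37 °C. Readout CellTiter-Glo luminescence.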
% is set by controls: 0 for no effect and ±100 for the full control effect; potency is the fitted concentration of half-maximal effect; tags give direction and shape of the fitted curve.

Row | Compound | activity change, negative = growth inhibition | Potency
1 | CN(C)c1ncc2nc(-c3ccc(F)cc3)c(=O)n(C3CC3)c2n1 | inactive: -0.0342% | 
2 | Cc1ccc([C@@H]2CC=C(C(=O)O)[C@H](c3ccc(Cl)cc3)N2S(=O)(=O)c2ccccc2C)cc1 | inactive: -10.1% | 
3 | Cc1cccc(C)c1OCC(=O)NNC(=O)CCNC(=O)c1ccc(Br)cc1 |  | inconclusive [inhibitor, single point]
4 | Fc1ccc(CNc2ccc(N3CCN(Cc4ccccc4)CC3)cc2)cc1 |  | inconclusive [inhibitor, single point]
5 | Cc1cccc(N2CCN(C(=O)c3c4c(nc5ccccc35)C(=O)N(C3CCCCC3)C4)CC2)c1C |  | active: 5.8 µM
6 | CCCN(CCC)C(=O)c1ccc2c(c1)N(CC)C(=O)c1ccccc1S2(=O)=O |  | inconclusive [inhibitor, single point]
7 | O=C(COC(=O)Cc1ccc(-c2ccccc2)cc1)NCc1ccc(F)cc1 |  | inconclusive [inhibitor, partial curve, poor fit]
8 | Cn1cc(-c2csc(C(O)(c3ccccc3)C(F)(F)F)n2)cn1 (centres undefined) |  | inconclusive [inhibitor, single point]
9 | CC1CCc2sc(C(=O)NNS(=O)(=O)c3ccc(F)c(F)c3F)cc2C1 (centres undefined) |  | inconclusive [inhibitor, partial curve]
10 | Cc1ccc(CC(=O)NCc2nc(-c3cccc(C)c3)no2)cc1 |  | inconclusive [inhibitor, partial curve]
11 | O=C(CCc1nnc(Cc2c[nH]c3ccccc23)o1)NCC1CC12CCCCC2 (centres undefined) |  | active: 25.9 µM
12 | O=S1(=O)N=C(Nc2ccc(N3CCOCC3)c(Cl)c2)c2ccccc21 |  | inconclusive [inhibitor, single point]
13 | Cc1ccc2c(c1)N(S(=O)(=O)c1cc(-c3cc(C)no3)ccc1C)CCO2 |  | inconclusive [inhibitor, single point]
14 | COc1ccc(CCN=C2SCC(=O)N2Cc2ccccc2)cc1OC |  | inconclusive [inhibitor, single point]
15 | CCN1C(=O)N/C(=C/c2cc(C)n(Cc3ccccc3)c2C)C1=O |  | inconclusive [inhibitor, single point]
16 | COc1ccccc1NS(=O)(=O)c1cc(NC(=S)NCCN2CCOCC2)ccc1N1CCOCC1 |  | inconclusive [inhibitor, single point]
17 | CC(=O)C1=C(O)CC(c2ccccc2)CC1=NCCc1ccccc1 (centres undefined) |  | inconclusive [inhibitor, single point]
18 | Cc1cccc(C)c1OCc1cc(=O)n2ccsc2n1 |  | inconclusive [inhibitor, single point]
19 | CCCCS(=O)(=O)N1CCCC(C(=O)Nc2ccc3c(c2)CCC3)C1 (centres undefined) | inactive: -28.3% | 
20 | CCCn1c(CC)nc([N+](=O)[O-])c1Sc1ncn[nH]1 |  | inconclusive [inhibitor, single point]
21 | Cc1ccccc1C(C)(O)c1cnc(C)n1Cc1ccccc1 (centres undefined) |  | active: 11.6 µM
22 | COc1c(C)cc(C(O)c2ncc(-c3ccccc3C(F)(F)F)[nH]2)cc1C (centres undefined) |  | inconclusive [inhibitor, single point]

Row | Compound | activity change, negative = growth inhibition | Potency
23 | Cc1nc(C(F)(F)F)c(C(=O)N=CN(C)C)s1 | inactive: -8.04% | 
24 | CCN(CC(=O)NCc1ccc(F)cc1)C(=O)c1ccc(C(=O)c2ccccc2)cc1 |  | inconclusive [inhibitor, single point]
25 | CCCCNC(=O)c1nc(-c2ccc(C(F)(F)F)cc2)oc1-c1ccccc1 | inactive: -20.1% | 
26 | COc1ccccc1/C=C/C=c1\sc2nc(=O)c(Cc3ccccc3)nn2c1=O | inactive: -14.8% | 
27 | COc1ccccc1N1CCN(C(=O)CCc2nnc3ccc(N4CCOCC4)nn23)CC1 | inactive: 2.5% | 
28 | Cc1cc(C)c(C#N)c(SCC(=O)c2cccs2)n1 |  | inconclusive [inhibitor, single point]
29 | COC(=O)c1ccccc1NC(=S)N(Cc1ccc2c(c1)OCO2)Cc1cc2ccc(C)cc2[nH]c1=O |  | inconclusive [inhibitor, partial curve]
30 | CCCCNC(=O)[C@H]1C[C@H]1[C@@H](O)[C@H](CO)NC(=O)[C@H](Cc1ccccc1)NC(=O)OC(C)(C)C | inactive: 0.849% | 
31 | COc1cccc(NC(=O)CSc2nnc(NC(=O)NC3CCCCC3)s2)c1 |  | inconclusive [inhibitor, single point]
32 | Cc1ccc(NC(=O)C2=C(O)CCn3c2nc2ccccc23)cc1 |  | inconclusive [inhibitor, single point]
33 | CCOc1c2ccc(C(=O)NCc3cc(C(F)(F)F)cc(C(F)(F)F)c3)cc2nn1CCOC |  | inconclusive [inhibitor, single point]
34 | CCn1c(=O)n(CC(=O)Nc2cc(OC)ccc2OC)c(=O)c2ccccc21 | inactive: -21.2% | 
35 | COc1ccc(C(=O)NCC(C)NC(=O)c2ccc(OC)cc2)cc1 (centres undefined) |  | inconclusive [inhibitor, single point]
36 | COc1ccc(NC(=O)CCC(=O)Nc2cc(OC)c(NC(=O)c3ccco3)cc2OC)c(OC)c1 |  | inconclusive [inhibitor, single point]
37 | CCOC(=O)C[C@H]1c2cc(F)ccc2S(=O)(=O)N1c1ccccc1 |  | inconclusive [inhibitor, single point]
38 | Cc1ccc(P(=O)(O)c2ccc(C)cc2)cc1 | inconclusive: -30% [inhibitor] | 
39 | O=[N+]([O-])c1ccc(S(=O)(=O)c2ccccc2)nc1 |  | active: 0.92 µM
40 | CCOc1ccc2[nH]c(=O)c(CN(CCN3CCCC3)C(=S)Nc3ccccc3OCC)cc2c1 |  | active: 23.1 µM
41 | Cc1ccc(Cn2c(=N)c(C(=O)NCc3ccco3)cc3c(=O)n4ccccc4nc32)cc1 |  | active: 11.2 µM
42 | CC1CCCC/C1=N\NS(=O)(=O)c1ccc(Br)cc1 (centres undefined) | inactive: 0.539% | 
43 | O=C(Nc1ccccc1C(=O)O)c1ncn[nH]1 | inactive: 1.01% | 
44 | COC(=O)c1sccc1NC(=O)c1ccccc1[N+](=O)[O-] |  | inconclusive [inhibitor, full curve, poor fit]

Source: PubChem BioAssay AID686978 (National Center for Advancing Translational Sciences (NCATS), 2013)
